First the molecules themselves.
B1: CUGUCGU (DNA:RNA)
RNA: GGGAGACCGGAAUUCAGAUUGUCCCUGUCGUUUAAAUCCCGUCGUAGCCACCA
DNA 1: CAATCTGAATTCCGGTCTCCC
DNA 2: TGGTGGCTACGACGGGATT
B2: UGUGCAA (DNA:RNA)
RNA: B1 RNA with C25U, U26G, G27U, U28G, G30A, U31A
DNA 1: CAATCTGAATTCCGGTCTCCC
DNA 2: TGGTGGCTACGACGGGATT
B3: CACGGCA (DNA:RNA)
RNA: B1 RNA with U26A, G27C, U28G, C29G, G30C, U31A
DNA 1: CAATCTGAATTCCGGTCTCCC
DNA 2: TGGTGGCTACGACGGGATT
B4: GUAACCC (DNA:RNA)
RNA: B1 RNA with C25G, G27A, U28A, G30C, U31C
DNA 1: CAATCTGAATTCCGGTCTCCC
DNA 2: TGGTGGCTACGACGGGATT
B5: GGGCGCG (DNA:RNA)
RNA: B1 RNA with C25G, U26G, U28C, C29G, G30C, U31G
DNA 1: CAATCTGAATTCCGGTCTCCC
DNA 2: TGGTGGCTACGACGGGATT
B6: UUGCUCC (DNA:RNA)
RNA: B1 RNA with C25U, U28C, C29U, G30C, U31C
DNA 1: CAATCTGAATTCCGGTCTCCC
DNA 2: TGGTGGCTACGACGGGATT
B7: UCGUAAG (DNA:RNA)
RNA: B1 RNA with C25U, U26C, C29A, G30A, U31G
DNA 1: CAATCTGAATTCCGGTCTCCC
DNA 2: TGGTGGCTACGACGGGATT
B8: UUUUUGU (DNA:RNA)
RNA: B1 RNA with C25U, G27U, C29U
DNA 1: CAATCTGAATTCCGGTCTCCC
DNA 2: TGGTGGCTACGACGGGATT
B9: CUGACAU (DNA:RNA)
RNA: B1 RNA with U28A, G30A
DNA 1: CAATCTGAATTCCGGTCTCCC
DNA 2: TGGTGGCTACGACGGGATT
B10: AAAUACA (DNA:RNA)
RNA: B1 RNA with C25A, U26A, G27A, C29A, G30C, U31A
DNA 1: CAATCTGAATTCCGGTCTCCC
DNA 2: TGGTGGCTACGACGGGATT
B11: GAUCUGA (DNA:RNA)
RNA: B1 RNA with C25G, U26A, G27U, U28C, C29U, U31A
DNA 1: CAATCTGAATTCCGGTCTCCC
DNA 2: TGGTGGCTACGACGGGATT
B12: GUUGGCA (DNA:RNA)
RNA: B1 RNA with C25G, G27U, U28G, C29G, G30C, U31A
DNA 1: CAATCTGAATTCCGGTCTCCC
DNA 2: TGGTGGCTACGACGGGATT
B13: AUUACAC (DNA:RNA)
RNA: B1 RNA with C25A, G27U, U28A, G30A, U31C
DNA 1: CAATCTGAATTCCGGTCTCCC
DNA 2: TGGTGGCTACGACGGGATT
B14: CCGUUCC (DNA:RNA)
RNA: B1 RNA with U26C, C29U, G30C, U31C
DNA 1: CAATCTGAATTCCGGTCTCCC
DNA 2: TGGTGGCTACGACGGGATT
B15: GAGGGCA (DNA:RNA)
RNA: B1 RNA with C25G, U26A, U28G, C29G, G30C, U31A
DNA 1: CAATCTGAATTCCGGTCTCCC
DNA 2: TGGTGGCTACGACGGGATT
B16: AGUUACG (DNA:RNA)
RNA: B1 RNA with C25A, U26G, G27U, C29A, G30C, U31G
DNA 1: CAATCTGAATTCCGGTCTCCC
DNA 2: TGGTGGCTACGACGGGATT
B17: AACGCCC (DNA:RNA)
RNA: B1 RNA with C25A, U26A, G27C, U28G, G30C, U31C
DNA 1: CAATCTGAATTCCGGTCTCCC
DNA 2: TGGTGGCTACGACGGGATT
B18: UGUCUCC (DNA:RNA)
RNA: GGGAGACCGGAAUUCAGAUUGUCCUGUCUCCUUAAAUCCCGUCGUAGCCACCA
DNA 1: CAATCTGAATTCCGGTCTCCC
DNA 2: TGGTGGCTACGACGGGATT
B19: CAGAUCU (DNA:RNA)
RNA: B1 RNA with U26A, U28A, C29U, G30C
DNA 1: CAATCTGAATTCCGGTCTCCC
DNA 2: TGGTGGCTACGACGGGATT
B20: CGACGCU (DNA:RNA)
RNA: B18 RNA with U25C, U27A, U29G, C31U
DNA 1: CAATCTGAATTCCGGTCTCCC
DNA 2: TGGTGGCTACGACGGGATT
B21: GGGACAU (DNA:RNA)
RNA: B1 RNA with C25G, U26G, U28A, G30A
DNA 1: CAATCTGAATTCCGGTCTCCC
DNA 2: TGGTGGCTACGACGGGATT
B22: UAACCCC (DNA:RNA)
RNA: B18 RNA with G26A, U27A, U29C
DNA 1: CAATCTGAATTCCGGTCTCCC
DNA 2: TGGTGGCTACGACGGGATT
B23: CCAGACG (DNA:RNA)
RNA: B1 RNA with U26C, G27A, U28G, C29A, G30C, U31G
DNA 1: CAATCTGAATTCCGGTCTCCC
DNA 2: TGGTGGCTACGACGGGATT
B24: AGCAAUA (DNA:RNA)
RNA: B18 RNA with U25A, U27C, C28A, U29A, C30U, C31A
DNA 1: CAATCTGAATTCCGGTCTCCC
DNA 2: TGGTGGCTACGACGGGATT
B25: GUGGCAC (DNA:RNA)
RNA: B1 RNA with C25G, U28G, G30A, U31C
DNA 1: CAATCTGAATTCCGGTCTCCC
DNA 2: TGGTGGCTACGACGGGATT
B26: ACCCGAG (DNA:RNA)
RNA: B18 RNA with U25A, G26C, U27C, U29G, C30A, C31G
DNA 1: CAATCTGAATTCCGGTCTCCC
DNA 2: TGGTGGCTACGACGGGATT
B27: UGCGGUU (DNA:RNA)
RNA: B18 RNA with U27C, C28G, U29G, C30U, C31U
DNA 1: CAATCTGAATTCCGGTCTCCC
DNA 2: TGGTGGCTACGACGGGATT
B28: ACUUAGU (DNA:RNA)
RNA: B1 RNA with C25A, U26C, G27U, C29A
DNA 1: CAATCTGAATTCCGGTCTCCC
DNA 2: TGGTGGCTACGACGGGATT
B29: UAAAUCA (DNA:RNA)
RNA: B18 RNA with G26A, U27A, C28A, C31A
DNA 1: CAATCTGAATTCCGGTCTCCC
DNA 2: TGGTGGCTACGACGGGATT
B30: CGAGAUC (DNA:RNA)
RNA: B18 RNA with U25C, U27A, C28G, U29A, C30U
DNA 1: CAATCTGAATTCCGGTCTCCC
DNA 2: TGGTGGCTACGACGGGATT
B31: ACGUACG (DNA:RNA)
RNA: B1 RNA with C25A, U26C, C29A, G30C, U31G
DNA 1: CAATCTGAATTCCGGTCTCCC
DNA 2: TGGTGGCTACGACGGGATT

Where a chain is given by its changes, count along the chain named. Some of the results follow.

For the test, the target named is T1, RBFOX1 RRM RbFoxmut (Fox-RRM*) (Homo sapiens, UniProt Q9NWB1 109-208, R118D;E147R;N151S;E152T).
T1 sequence: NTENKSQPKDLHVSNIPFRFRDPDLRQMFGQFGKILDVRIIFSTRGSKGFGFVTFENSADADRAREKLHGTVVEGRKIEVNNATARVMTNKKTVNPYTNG
In words: EMSA; HiTS-Eq, 1 nM pool, 10 min; buffer printed only for the single-RNA assays: 10 mM Tris pH 7.5, 150 mM NaCl, 3.4 mM EDTA, 0.001% NP-40, 30 C. The following applies: tags: His6 N-terminal (pET28a); label: 5' 32P. The essentials: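 Purified RbFox RRM (wild type or mutant) was equilibrated for 10 min in 50 µL with 1 nM of a 5′-radiolabelled pool of RNA with 7 randomized nucleotides, its flanks annealed to DNA oligonucleotides, across increasing protein concentrations. Free RNA was separated by 8% native PAGE, excised, reverse-transcribed, PCR-barcoded and sequenced on an Illumina HiSeq 2500. Relative association constants came from read-count changes of each variant against the control reaction, normalised to the cognate motif.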
Regarding B1, the binding signal is 0.138 KA relative to UGCAUGU. In the case of B2 it was 0.0708 KA relative to UGCAUGU; in that of B3, 0.111 KA relative to UGCAUGU.

In the case of B4, the binding signal was 0.063 KA relative to UGCAUGU. In the case of B5 it was 0.186 KA relative to UGCAUGU; in that of B6, 0.0613 KA relative to UGCAUGU. Take B7: the binding signal is 0.129 KA relative to UGCAUGU. For B8, the binding signal was 0.12 KA relative to UGCAUGU. As to B9, the binding signal is 0.078 KA relative to UGCAUGU.

Consider B10, for which the binding signal is 0.1 KA relative to UGCAUGU. For the molecule B11, the binding signal is 0.0464 KA relative to UGCAUGU. Regarding B12, the binding signal is 0.157 KA relative to UGCAUGU.

As for B13, the binding signal was 0.0952 KA relative to UGCAUGU. Take B14: the binding signal was 0.0525 KA relative to UGCAUGU. As for B15, the binding signal was 0.0718 KA relative to UGCAUGU. Consider B16, for which the binding signal is 0.12 KA relative to UGCAUGU. Turning to B17, the binding signal was 0.0509 KA relative to UGCAUGU.

B18: the binding signal is 0.153 KA relative to UGCAUGU. For the molecule B19, the binding signal was 0.0588 KA relative to UGCAUGU. Turning to B20, the binding signal is 0.0924 KA relative to UGCAUGU. On to B21, for which the binding signal is 0.0656 KA relative to UGCAUGU. For the molecule B22, the binding signal was 0.0798 KA relative to UGCAUGU.

In the case of B23, the binding signal was 0.0488 KA relative to UGCAUGU. Turning to B24, the binding signal is 0.0997 KA relative to UGCAUGU. Turning to B25, the binding signal was 0.0959 KA relative to UGCAUGU. Turning to B26, the binding signal was 0.0876 KA relative to UGCAUGU. Consider B27, for which the binding signal was 0.098 KA relative to UGCAUGU. As to B28, the binding signal is 0.142 KA relative to UGCAUGU. For B29, the binding signal is 0.0786 KA relative to UGCAUGU. On to B30, for which the binding signal is 0.0647 KA relative to UGCAUGU. For the molecule B31, the binding signal is 0.136 KA relative to UGCAUGU.

These data come from publication PMC9911399, “Two distinct binding modes provide the RNA-binding protein RbFox with extraordinary sequence specificity”.
